Laboratory results: publication PMC4336329 (PLoS ONE, 2015)
The whole screen tested about 310,000 compounds, of which about 14,000 (4.5%) showed an effect of 50% or more. The effect is printed as a negative number. The list shows a part of the results.

target: human ether-à-go-go-related gene (hERG) potassium channel (human, UniProt Q12809); assay: primary screen, population patch clamp on CHO cells stably expressing hERG
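Note: peak tail current of the secondary pulse compared with the same well before compound.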

Chain of human ether-à-go-go-related gene (hERG) potassium channel (Q12809 whole entry, looked up): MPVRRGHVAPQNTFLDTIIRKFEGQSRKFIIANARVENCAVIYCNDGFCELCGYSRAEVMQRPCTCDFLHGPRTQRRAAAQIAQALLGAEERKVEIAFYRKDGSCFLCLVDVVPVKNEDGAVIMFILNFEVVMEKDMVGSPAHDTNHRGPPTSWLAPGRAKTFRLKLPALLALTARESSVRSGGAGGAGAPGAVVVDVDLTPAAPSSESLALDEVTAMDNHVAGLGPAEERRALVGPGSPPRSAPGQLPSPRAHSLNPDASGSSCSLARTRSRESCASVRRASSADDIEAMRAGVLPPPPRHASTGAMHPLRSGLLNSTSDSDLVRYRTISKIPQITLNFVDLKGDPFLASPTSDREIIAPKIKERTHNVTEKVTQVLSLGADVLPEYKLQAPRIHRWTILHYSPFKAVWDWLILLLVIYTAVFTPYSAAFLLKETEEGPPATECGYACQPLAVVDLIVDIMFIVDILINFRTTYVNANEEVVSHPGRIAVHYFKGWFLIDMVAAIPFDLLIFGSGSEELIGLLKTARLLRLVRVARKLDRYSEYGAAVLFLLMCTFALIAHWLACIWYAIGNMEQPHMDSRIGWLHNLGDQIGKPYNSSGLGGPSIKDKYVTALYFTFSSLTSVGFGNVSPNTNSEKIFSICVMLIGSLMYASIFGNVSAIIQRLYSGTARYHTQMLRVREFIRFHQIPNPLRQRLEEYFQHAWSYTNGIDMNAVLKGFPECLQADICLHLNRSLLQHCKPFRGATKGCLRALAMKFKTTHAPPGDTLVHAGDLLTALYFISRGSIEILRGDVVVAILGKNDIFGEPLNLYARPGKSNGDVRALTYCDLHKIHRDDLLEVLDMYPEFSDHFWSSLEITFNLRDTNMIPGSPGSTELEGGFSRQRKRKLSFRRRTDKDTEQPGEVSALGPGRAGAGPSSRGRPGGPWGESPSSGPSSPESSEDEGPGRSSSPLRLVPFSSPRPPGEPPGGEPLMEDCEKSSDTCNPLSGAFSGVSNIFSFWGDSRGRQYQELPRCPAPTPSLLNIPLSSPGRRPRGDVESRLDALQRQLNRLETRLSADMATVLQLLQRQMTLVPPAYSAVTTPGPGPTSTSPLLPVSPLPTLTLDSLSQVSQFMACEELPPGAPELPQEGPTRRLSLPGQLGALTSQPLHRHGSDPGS

Row | SMILES | hERG current change (%, negative = inhibition) at 10uM
1 | COc1cc(C2CC(=O)N3CN(Cc4ccco4)CSC3=C2C#N)ccc1OCc1ccccc1 (stereo not drawn) | 15.1%
2 | COc1cccc(N/C(N)=N/c2nc(C(F)(F)F)cc(=O)[nH]2)c1 | 0.0128%
3 | O=C(Nc1cccc(Cl)c1)Nc1cccc(Cl)c1 | 13.2%
4 | CCc1ccc(OCC(=O)NC(C)(C)C)cc1 | 21.9%
5 | COCCn1c(=O)[nH]c(=O)c2c(C(F)(F)F)cc(-c3cccs3)nc21 | 8.95%
6 | Cc1oc(C)c(C(=O)NCCCC(=O)O)c1C(=O)NCCCC(=O)O | 28.3%
7 | Cc1ccc2nc(-c3ccc(NC(=S)NC4CC(C)(C)NC(C)(C)C4)cc3)sc2c1 | 4.59%
8 | O=C(C1CCCCCC1)N1CC[C@@H](N2CCC(O)CC2)[C@H](O)C1 | 12.6%
9 | O=c1nc(-c2ccccc2)c2ccccc2[nH]1 | -1.29%
10 | Cc1ccc(N(CC(O)CN2C(=O)NC(C)(C)C2=O)S(=O)(=O)c2ccc(C)cc2)cc1 (stereo not drawn) | -20.3%
11 | CCNc1nc(N)nc(-c2cc(Cl)ccc2O)n1 | 15.7%
12 | CCCCOc1ccc(/C(O)=C2/C(=O)C(=O)N(Cc3cccnc3)C2c2ccncc2)c(C)c1 (stereo not drawn) | -1.61%
13 | Nc1nc(N)nc(-c2cc([N+](=O)[O-])ccc2O)n1 | -1.71%
14 | Cc1cccc(NC(=O)COc2coc(CN3CCN(c4ccccc4)CC3)cc2=O)c1 | -7.9%
15 | Cc1ccc(-n2c(SCC(=O)Nc3cccc(C)c3)nc3c(oc4ccccc43)c2=O)cc1 | 18.7%
16 | Cc1ccc(NC(=S)Nc2cccc3cnccc23)c(C)c1 | 45.2%
17 | O=C(COC(=O)CCc1ccccc1)Nc1ncc(Cl)cc1Cl | -7.23%
18 | CCCOC(=O)/C(C)=N\NC(=O)c1ccco1 | 14.8%
19 | O=C(Cc1ccccc1)N1CCCC(c2nc(-c3ccc(S(=O)(=O)N4CCCC4)cc3)no2)C1 (stereo not drawn) | -9.11%
20 | CCOC(=O)c1ccc(Nc2ncnc3ccc(C)cc23)cc1 | 6.65%
21 | O=c1oc2ccccc2c2c1nnn2CCO | 8.06%
22 | COc1ccc(N(C(=O)COc2ccccc2)C2C=CS(=O)(=O)C2)cc1 (stereo not drawn) | -1.57%
23 | CC1Cc2ccccc2N1C(=O)COC(=O)Cn1cnc2ccccc2c1=O (stereo not drawn) | -10.8%

Row | SMILES | hERG current change (%, negative = inhibition) at 10uM
24 | COCCN=c1scc(-c2cccs2)n1/N=C(\C)c1ccco1 | -2.51%
25 | Cc1ccc(NC(=O)COC(=O)C2COc3ccccc3O2)cc1S(=O)(=O)N1CCOCC1 (stereo not drawn) | -13.1%
26 | O=C(NC1CCCC1)C(c1ccccn1)N(C(=O)c1csnn1)c1ccccc1Br (stereo not drawn) | -9.47%
27 | CCN1CCN(C(=O)NC2CCCCC2)CC1.O=C(O)C(=O)O | 10.2%
28 | CCN(CC)c1ccc(/C=N/N2C(=O)c3ccccc3C2=O)cc1 | 5.96%
29 | CCOCCCn1c(NN)nc2ccccc2c1=O | 37.5%
30 | CC(=O)c1ccc(N2CCN(S(=O)(=O)c3c(C)[nH]c(C)c3C(=O)N3CCCCC3)CC2)cc1 | 8.31%
31 | CCC(=O)Oc1ccc(C2N(C(=O)CC)CCN2S(=O)(=O)c2ccc(C)cc2)cc1OC (stereo not drawn) | -6.79%
32 | COc1cc(SC)ccc1C(=O)Nc1cccc(C2OCCCO2)c1 | -35.5%
33 | CCOC(=O)c1nc2ccccc2c(=O)n1-c1cccc(C)c1 | -0.452%
34 | COc1ccc(Cl)cc1S(=O)(=O)N(C)CC(=O)NCc1ccc2c(c1)OCO2 | -25%
35 | CN(C)C(=O)c1ccc(=O)n(Cc2ccc(Cl)cc2Cl)c1 | -2.53%
36 | c1ccc(C(c2nnnn2C2CCCC2)N2CCCCCC2)nc1 (stereo not drawn) | -13.1%
37 | COc1cc(/C=N/NC(N)=S)cc(Br)c1OCc1ccccc1F | -11.8%
38 | CC(=O)N1CCc2c(sc(NC(=O)Cc3ccccc3)c2C#N)C1 | 11.6%
39 | Cc1cc(=O)n2nc(N3CCCC(C(=O)NC4CCC(C)CC4)C3)sc2n1 (stereo not drawn) | -0.297%
40 | COc1ccc(-c2nnnn2C(C)C)cc1S(=O)(=O)Nc1ccccc1 | -13.9%
41 | Cc1ccc(C)c(S(=O)(=O)N/N=C/c2ccc(C(=O)O)cc2)c1 | -0.036%
42 | OC1O[C@H](c2ccc3c(c2)OCO3)[C@H]2CO[C@H](c3ccc4c(c3)OCO4)[C@@H]12 (stereo partly drawn) | -9.91%
43 | O=C(OCc1c(Cl)cccc1Cl)c1ccncc1 | -6.56%
44 | CCCCOc1ccc(-c2cn3ccccc3n2)cc1[N+](=O)[O-] | 22.9%
45 | CCN(CC)CCN(C)c1ccc(N2C(=O)C3CC=CCC3C2=O)cc1[N+](=O)[O-] (stereo not drawn) | -6.16%
46 | Cc1ccc(NNC(=O)c2c(F)cccc2Cl)cc1Cl | 2.13%

Row | SMILES | hERG current change (%, negative = inhibition) at 10uM
47 | CC(=O)c1cccc(NS(C)(=O)=O)c1 | 2.28%
48 | O=C(c1ccc(-c2ccccc2)cc1)N1CCC(C(=O)N2CCCC2)CC1 | -19.8%
49 | Cc1cc2nc(CO)[nH]c2cc1C | 14.9%
50 | Cc1c(Cl)cccc1NCC(=O)Nc1ccc(Cl)cc1F | 18.8%
51 | COc1ccc(-c2nn(-c3ccccc3)cc2C(=O)NCCCn2ccnc2)cc1 | -39.4%
52 | O=C(O)c1ccc(N/N=C/c2cc3c(cc2[N+](=O)[O-])OCO3)cc1 | 26.8%
53 | CCCc1cc(=O)n2[nH]c(CCc3ccccc3)nc2n1 | 14.1%
54 | COCCOc1nc2ccccc2nc1C | -2.05%
55 | CN1CCN(S(=O)(=O)c2ccc(Oc3cccc(C(F)(F)F)c3)nc2)CC1 | -12.8%
56 | CCOc1ccc(OCC)c(-c2c(=O)n(OCc3ccc(Cl)cc3)c3ccccc3[n+]2[O-])c1 | -9.58%
57 | COc1cccc2[nH]c(C(=O)NC(C)c3ccccc3)cc12 (stereo not drawn) | -24.6%
58 | O=C(CSc1nc2ccccc2c(=O)n1Cc1ccco1)NCc1ccco1 | -65.4%
59 | Cc1ccc(-c2nnc(N)s2)cc1 | 15.4%
60 | Clc1ccc(-c2n[nH]c3c2CCCC3)cc1 | -3.33%
61 | CC(=O)NC1C(=O)N=C(SCC(=O)NC2CCCCC2)NC1=O (stereo not drawn) | 12.6%
62 | CCCCN=C(C)C1=C(O)CSC1=O | 10.2%
63 | O=C(COc1ccc(Cl)cc1)Nc1ccc(N2CCN(C(=O)c3ccco3)CC2)cc1 | -21.1%
64 | Nc1nc(N2CCOCC2)nc2ccccc12 | -19.7%
65 | COc1ccc(N2C(=O)C3CC=C(Cl)CC3C2=O)cc1 (stereo not drawn) | -0.738%
66 | CNC(=O)/C(C#N)=C/c1cn(CC(=O)NCc2ccco2)c2ccccc12 | 13.7%
67 | CCOc1ccc(NC(=S)N2CCn3c(nc4ccccc43)C2)cc1 | -44.7%
68 | COC(=O)Nc1ccc(S(=O)(=O)N2CCCC(C(=O)NC3CCCCC3)C2)cc1 (stereo not drawn) | 4.76%
69 | O=c1oc2ccccc2c(O)c1[C@H]1c2ccc(O)cc2Oc2c1c(=O)oc1ccccc21 | 7.55%

Row | SMILES | hERG current change (%, negative = inhibition) at 10uM
70 | Cc1onc(-c2ccccc2)c1C(=O)NC(=S)NNC(=O)c1ccccc1O | 9.31%
71 | O=C(CSc1nnc(Cc2cccs2)n1Cc1ccco1)Nc1ccc(Cl)cc1Cl | -57.1%
72 | N#CC(C(=O)Nc1cccc(Cl)c1)=C1Nc2ccccc2N1 | 13%
73 | COc1ccc(CNc2nc3c(c(=O)n(Cc4ccc(Br)cc4)c(=O)n3C)n2C)cc1 | -10.8%
74 | O=C(C[n+]1ccccc1)Nc1ccccc1 | 7.93%
75 | COc1ccc(/C=N/NC(=O)c2ccncc2)cc1COc1ccc(NC(C)=O)cc1 | -22.9%
76 | Cc1ccc(S(=O)(=O)N2CCOC2C(Cl)(Cl)Cl)cc1 (stereo not drawn) | 4.64%
77 | Cc1cc(-c2ccccc2)nc2c(Br)c(=O)[nH]n12 | 20.9%
78 | O=C(C1CCCN1S(=O)(=O)c1cccc2cccnc12)N1CCn2c1nc1ccccc12 (stereo not drawn) | -50.8%
79 | CC1(C)CC(CC(=O)O)(c2ccccc2)CCO1 (stereo not drawn) | -1.62%
80 | Cc1cc(C)c(OCC(=O)N/N=C/c2ccco2)c(C)c1 | -3.8%
81 | Cc1nn(C2CCS(=O)(=O)C2)c(C)c1CN(C)C(=O)c1ccccc1 (stereo not drawn) | 0.783%
82 | COc1ccc(O)c(C(=O)c2cnc3c(c2)c(C)nn3C)c1 | 17.9%
83 | CNS(=O)(=O)c1cccc(C(=O)Nc2cccnc2)c1 | -0.468%
84 | N#C/C(=C/c1ccccc1)C(=O)NCc1ccccc1 | 30%
85 | CC(=O)c1cccc(NC(=O)Cc2cccs2)c1 | 1.91%
86 | CN(C(=O)CSc1ccncc1)C1CCCN(Cc2ccccc2F)C1 (stereo not drawn) | -19.3%
87 | COc1cccc(OC)c1C(=O)N1CCN(C(=O)c2ccc(-c3ccccc3)cc2)CC1 | -9.56%
88 | C=CCOC(=O)Nc1c(C(=O)OC)[nH]c2ccccc12 | 12.9%
89 | COc1cccc(N/C(N)=N/c2nc(CSc3ccccn3)cc(=O)[nH]2)c1 | 8.04%
90 | O=C(CSc1nnc(COc2ccccc2)o1)Nc1ccc(F)cc1 | 11.5%
